Our source for the binding values is publication PMC7092493.

The chains behind the UniProt entries cited, without tags or fusion partners.
UniProt Q8TDX7: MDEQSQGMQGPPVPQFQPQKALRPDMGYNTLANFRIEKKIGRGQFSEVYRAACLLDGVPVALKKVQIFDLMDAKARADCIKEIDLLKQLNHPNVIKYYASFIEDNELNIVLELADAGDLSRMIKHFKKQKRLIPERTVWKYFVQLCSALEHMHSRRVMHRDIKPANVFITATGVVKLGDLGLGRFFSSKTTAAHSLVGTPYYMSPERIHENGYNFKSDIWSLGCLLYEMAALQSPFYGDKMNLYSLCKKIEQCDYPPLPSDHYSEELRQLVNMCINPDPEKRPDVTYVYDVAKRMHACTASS

The target of assay [1] is T1, Flag-tagged Codanin-1 (human) (UniProt Q8IWY9).
T1 sequence: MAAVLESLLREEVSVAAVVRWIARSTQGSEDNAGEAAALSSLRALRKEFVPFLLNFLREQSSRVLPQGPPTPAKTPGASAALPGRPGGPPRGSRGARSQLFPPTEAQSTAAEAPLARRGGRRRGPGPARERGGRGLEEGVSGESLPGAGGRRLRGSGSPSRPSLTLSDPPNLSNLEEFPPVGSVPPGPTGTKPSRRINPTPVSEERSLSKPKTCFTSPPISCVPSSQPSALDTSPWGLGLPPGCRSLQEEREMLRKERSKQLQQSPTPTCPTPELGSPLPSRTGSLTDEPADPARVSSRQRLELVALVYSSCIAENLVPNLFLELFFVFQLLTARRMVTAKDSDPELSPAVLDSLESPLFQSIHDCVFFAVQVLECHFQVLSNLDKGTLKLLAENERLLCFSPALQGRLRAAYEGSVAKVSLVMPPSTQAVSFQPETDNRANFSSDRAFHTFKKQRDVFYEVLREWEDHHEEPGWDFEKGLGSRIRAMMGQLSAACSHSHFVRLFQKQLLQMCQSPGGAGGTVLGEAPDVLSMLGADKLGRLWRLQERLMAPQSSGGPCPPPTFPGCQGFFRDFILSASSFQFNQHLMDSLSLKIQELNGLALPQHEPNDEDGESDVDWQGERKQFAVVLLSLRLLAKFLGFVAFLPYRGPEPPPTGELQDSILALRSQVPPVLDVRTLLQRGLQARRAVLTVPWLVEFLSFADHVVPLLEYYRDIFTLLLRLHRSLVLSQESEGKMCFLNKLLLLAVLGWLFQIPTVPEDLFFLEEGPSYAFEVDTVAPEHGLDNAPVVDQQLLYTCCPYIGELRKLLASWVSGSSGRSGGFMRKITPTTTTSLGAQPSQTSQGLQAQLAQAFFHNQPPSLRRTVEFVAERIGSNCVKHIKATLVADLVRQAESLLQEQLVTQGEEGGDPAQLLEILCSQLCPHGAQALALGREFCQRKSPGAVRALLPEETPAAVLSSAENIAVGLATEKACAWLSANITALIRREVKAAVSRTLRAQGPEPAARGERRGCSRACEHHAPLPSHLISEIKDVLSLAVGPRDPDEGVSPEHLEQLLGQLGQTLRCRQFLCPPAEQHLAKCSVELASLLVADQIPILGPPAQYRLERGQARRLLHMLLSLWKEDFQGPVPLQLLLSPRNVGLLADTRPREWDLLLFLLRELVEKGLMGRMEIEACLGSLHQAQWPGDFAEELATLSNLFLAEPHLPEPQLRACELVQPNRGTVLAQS
Kind of assay: co-IP; HeLa cells co-transfected, lysate (1% TX-100, 100 mM NaCl) precipitated with Flag antibody on protein A-sepharose, 4 °C, Western blot. For orientation: Immunoblotting shows a protein as a band on a membrane.

Assay [2] has as its target T2, Codanin-1 R1042W mutant protein (human) (UniProt Q8IWY9).
T2 sequence: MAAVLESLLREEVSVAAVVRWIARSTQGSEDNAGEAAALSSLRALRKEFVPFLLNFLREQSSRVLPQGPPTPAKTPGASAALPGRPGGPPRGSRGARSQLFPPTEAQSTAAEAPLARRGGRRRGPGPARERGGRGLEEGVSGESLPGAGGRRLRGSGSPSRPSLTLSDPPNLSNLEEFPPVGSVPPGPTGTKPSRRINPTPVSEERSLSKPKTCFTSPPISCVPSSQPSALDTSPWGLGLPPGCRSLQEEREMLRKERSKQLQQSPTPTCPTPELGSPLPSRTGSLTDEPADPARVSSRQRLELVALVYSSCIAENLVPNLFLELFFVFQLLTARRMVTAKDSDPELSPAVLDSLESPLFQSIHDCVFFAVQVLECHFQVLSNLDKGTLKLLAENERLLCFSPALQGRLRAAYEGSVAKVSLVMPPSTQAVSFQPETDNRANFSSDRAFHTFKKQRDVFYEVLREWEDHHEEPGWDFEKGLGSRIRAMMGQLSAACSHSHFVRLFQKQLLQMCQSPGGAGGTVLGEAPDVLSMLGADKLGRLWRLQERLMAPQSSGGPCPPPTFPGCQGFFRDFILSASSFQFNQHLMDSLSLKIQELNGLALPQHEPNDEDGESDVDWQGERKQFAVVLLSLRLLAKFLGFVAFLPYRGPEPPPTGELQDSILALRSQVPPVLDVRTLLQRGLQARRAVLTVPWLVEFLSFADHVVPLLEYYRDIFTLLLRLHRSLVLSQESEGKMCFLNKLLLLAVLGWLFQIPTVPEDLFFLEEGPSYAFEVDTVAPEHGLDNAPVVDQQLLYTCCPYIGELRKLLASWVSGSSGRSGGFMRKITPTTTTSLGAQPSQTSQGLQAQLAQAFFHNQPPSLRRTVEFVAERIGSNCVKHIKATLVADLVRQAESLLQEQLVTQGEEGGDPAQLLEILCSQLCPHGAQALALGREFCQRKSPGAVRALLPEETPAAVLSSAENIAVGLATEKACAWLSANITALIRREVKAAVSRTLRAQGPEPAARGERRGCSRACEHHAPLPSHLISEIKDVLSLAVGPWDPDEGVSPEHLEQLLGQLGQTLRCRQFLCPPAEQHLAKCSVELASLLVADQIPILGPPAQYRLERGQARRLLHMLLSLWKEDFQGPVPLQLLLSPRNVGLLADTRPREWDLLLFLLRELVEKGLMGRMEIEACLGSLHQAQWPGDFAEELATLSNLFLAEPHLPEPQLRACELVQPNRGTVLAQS
The description is as above.

Assay [3] has as its target T3, Codanin-1 protein lacking the last 224 amino acids (human) (UniProt Q8IWY9).
T3 sequence: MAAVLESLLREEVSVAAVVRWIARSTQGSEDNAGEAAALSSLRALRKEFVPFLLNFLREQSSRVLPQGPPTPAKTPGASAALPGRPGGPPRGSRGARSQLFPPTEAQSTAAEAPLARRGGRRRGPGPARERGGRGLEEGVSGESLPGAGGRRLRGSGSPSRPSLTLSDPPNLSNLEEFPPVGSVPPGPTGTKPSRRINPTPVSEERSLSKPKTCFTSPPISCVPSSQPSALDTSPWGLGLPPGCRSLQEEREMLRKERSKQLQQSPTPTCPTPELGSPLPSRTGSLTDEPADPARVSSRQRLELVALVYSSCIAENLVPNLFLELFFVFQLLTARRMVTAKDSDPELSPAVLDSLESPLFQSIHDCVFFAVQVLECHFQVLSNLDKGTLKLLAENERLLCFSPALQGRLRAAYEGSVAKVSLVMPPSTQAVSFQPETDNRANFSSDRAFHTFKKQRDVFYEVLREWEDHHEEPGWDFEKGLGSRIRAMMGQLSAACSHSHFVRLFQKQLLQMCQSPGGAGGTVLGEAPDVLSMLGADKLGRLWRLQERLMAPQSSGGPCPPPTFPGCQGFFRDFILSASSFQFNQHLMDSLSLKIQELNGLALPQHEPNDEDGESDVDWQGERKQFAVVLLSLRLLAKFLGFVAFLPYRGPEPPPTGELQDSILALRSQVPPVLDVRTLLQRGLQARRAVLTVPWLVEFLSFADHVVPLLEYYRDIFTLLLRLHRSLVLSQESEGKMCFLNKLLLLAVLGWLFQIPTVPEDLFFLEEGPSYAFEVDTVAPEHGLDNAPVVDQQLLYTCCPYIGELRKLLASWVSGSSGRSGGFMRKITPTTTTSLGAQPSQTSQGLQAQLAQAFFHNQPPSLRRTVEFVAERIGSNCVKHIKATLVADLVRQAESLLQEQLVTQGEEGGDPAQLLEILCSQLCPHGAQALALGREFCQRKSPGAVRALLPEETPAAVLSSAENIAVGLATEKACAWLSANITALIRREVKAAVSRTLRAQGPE
Described as above.

Assay [4] has as its target T4, C-terminal 222 amino acids of Codanin-1 (a.a.1005 to 1227) (human) (UniProt Q8IWY9).
T4 sequence: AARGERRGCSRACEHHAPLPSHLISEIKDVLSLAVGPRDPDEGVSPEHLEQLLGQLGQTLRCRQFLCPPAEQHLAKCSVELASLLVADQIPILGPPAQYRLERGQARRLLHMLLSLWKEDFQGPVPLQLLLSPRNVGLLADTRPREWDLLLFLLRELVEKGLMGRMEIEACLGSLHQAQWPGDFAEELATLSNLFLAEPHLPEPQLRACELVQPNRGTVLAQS
The assay is described as above.

The target of the next assay is T5, HA-C15Orf41 (human) (UniProt Q9Y2V0).
T5 sequence: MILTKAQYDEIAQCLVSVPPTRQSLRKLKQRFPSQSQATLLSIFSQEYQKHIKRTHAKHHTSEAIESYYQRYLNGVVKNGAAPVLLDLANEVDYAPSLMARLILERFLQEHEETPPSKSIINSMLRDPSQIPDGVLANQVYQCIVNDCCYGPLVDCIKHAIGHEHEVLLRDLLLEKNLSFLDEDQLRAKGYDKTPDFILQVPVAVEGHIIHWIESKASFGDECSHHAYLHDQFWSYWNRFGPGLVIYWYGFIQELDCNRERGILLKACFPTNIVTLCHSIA
Kind of assay: co-IP; reciprocal: HeLa cells co-transfected, lysate precipitated with anti-rabbit HA antibodies on protein A-sepharose, 4 °C, Western blot.

These are yes or no findings as the source states them, for the method shown. In cells and extracts the contact can be indirect. Some results given as binding are weak or reduced against the parent protein; the word gives no strength. Where a sequence is shown, tags or fusion partners need not be part of it.

Turning to “HA-Nek7 (from UniProt Q8TDX7 1-302) (enzyme)”, the binding entry in assay [1] is on record as “no binding”.

B1: HA-C15Orf41 (protein, UniProt Q9Y2V0-1 1-281)
chain: MILTKAQYDEIAQCLVSVPPTRQSLRKLKQRFPSQSQATLLSIFSQEYQKHIKRTHAKHHTSEAIESYYQRYLNGVVKNGAAPVLLDLANEVDYAPSLMARLILERFLQEHEETPPSKSIINSMLRDPSQIPDGVLANQVYQCIVNDCCYGPLVDCIKHAIGHEHEVLLRDLLLEKNLSFLDEDQLRAKGYDKTPDFILQVPVAVEGHIIHWIESKASFGDECSHHAYLHDQFWSYWNRFGPGLVIYWYGFIQELDCNRERGILLKACFPTNIVTLCHSIA
With B1, the binding result was “binds” in assay [2], “binds” in assay [1], “no binding” in assay [3] and “binds” in assay [4].

B2: Flag-tagged Codanin-1 (protein, UniProt Q8IWY9-2 1-1227)
chain: MAAVLESLLREEVSVAAVVRWIARSTQGSEDNAGEAAALSSLRALRKEFVPFLLNFLREQSSRVLPQGPPTPAKTPGASAALPGRPGGPPRGSRGARSQLFPPTEAQSTAAEAPLARRGGRRRGPGPARERGGRGLEEGVSGESLPGAGGRRLRGSGSPSRPSLTLSDPPNLSNLEEFPPVGSVPPGPTGTKPSRRINPTPVSEERSLSKPKTCFTSPPISCVPSSQPSALDTSPWGLGLPPGCRSLQEEREMLRKERSKQLQQSPTPTCPTPELGSPLPSRTGSLTDEPADPARVSSRQRLELVALVYSSCIAENLVPNLFLELFFVFQLLTARRMVTAKDSDPELSPAVLDSLESPLFQSIHDCVFFAVQVLECHFQVLSNLDKGTLKLLAENERLLCFSPALQGRLRAAYEGSVAKVSLVMPPSTQAVSFQPETDNRANFSSDRAFHTFKKQRDVFYEVLREWEDHHEEPGWDFEKGLGSRIRAMMGQLSAACSHSHFVRLFQKQLLQMCQSPGGAGGTVLGEAPDVLSMLGADKLGRLWRLQERLMAPQSSGGPCPPPTFPGCQGFFRDFILSASSFQFNQHLMDSLSLKIQELNGLALPQHEPNDEDGESDVDWQGERKQFAVVLLSLRLLAKFLGFVAFLPYRGPEPPPTGELQDSILALRSQVPPVLDVRTLLQRGLQARRAVLTVPWLVEFLSFADHVVPLLEYYRDIFTLLLRLHRSLVLSQESEGKMCFLNKLLLLAVLGWLFQIPTVPEDLFFLEEGPSYAFEVDTVAPEHGLDNAPVVDQQLLYTCCPYIGELRKLLASWVSGSSGRSGGFMRKITPTTTTSLGAQPSQTSQGLQAQLAQAFFHNQPPSLRRTVEFVAERIGSNCVKHIKATLVADLVRQAESLLQEQLVTQGEEGGDPAQLLEILCSQLCPHGAQALALGREFCQRKSPGAVRALLPEETPAAVLSSAENIAVGLATEKACAWLSANITALIRREVKAAVSRTLRAQGPEPAARGERRGCSRACEHHAPLPSHLISEIKDVLSLAVGPRDPDEGVSPEHLEQLLGQLGQTLRCRQFLCPPAEQHLAKCSVELASLLVADQIPILGPPAQYRLERGQARRLLHMLLSLWKEDFQGPVPLQLLLSPRNVGLLADTRPREWDLLLFLLRELVEKGLMGRMEIEACLGSLHQAQWPGDFAEELATLSNLFLAEPHLPEPQLRACELVQPNRGTVLAQS
As for B2, the binding result with HA-C15Orf41 (human) is recorded as “binds”.
